Results are given in words; binding and its absence hold for the method and conditions named. For some assays here: Binding seen in cells or lysates may run through a third protein. Some results given as binding are weak or reduced against the parent protein; the word gives no strength. For some assays here: Tags and fused reporters may be left off the sequences shown. One block for each substance: values may come before it.
Key:
HA-p85α (WT) (human) [1] = target: HA-p85α (WT) (human) (UniProt P27986); test: co-IP; RBX1 knockout (KO) LN229 cells transfected with indicated plasmids; cell extracts
HA-p85α (WT) (human) [2] = target: HA-p85α (WT) (human) (UniProt P27986); test: co-IP; LN229 cells transfected with tagged plasmids; cell lysates; Fig. 3d in the presence of BafA1 (0.2 μM)
HA-p85α (K245R) (human) = HA-p85α (K245R) (human) (UniProt P27986); test: co-IP; HEK293T cells transfected with tagged plasmids; cell lysates
HA-p85α (WT) (human) [3] = target: HA-p85α (WT) (human) (UniProt P27986); test: as above
HA-p85α (K256R) (human) = HA-p85α (K256R) (human) (UniProt P27986); test: as above
[4] = target: T1, purified recombinant His-NLRP6 (human) (UniProt P59044); test: co-IP; purified His-NLRP6 with purified GST-p85α (WT or K245R), in vitro; both purified
T1 sequence: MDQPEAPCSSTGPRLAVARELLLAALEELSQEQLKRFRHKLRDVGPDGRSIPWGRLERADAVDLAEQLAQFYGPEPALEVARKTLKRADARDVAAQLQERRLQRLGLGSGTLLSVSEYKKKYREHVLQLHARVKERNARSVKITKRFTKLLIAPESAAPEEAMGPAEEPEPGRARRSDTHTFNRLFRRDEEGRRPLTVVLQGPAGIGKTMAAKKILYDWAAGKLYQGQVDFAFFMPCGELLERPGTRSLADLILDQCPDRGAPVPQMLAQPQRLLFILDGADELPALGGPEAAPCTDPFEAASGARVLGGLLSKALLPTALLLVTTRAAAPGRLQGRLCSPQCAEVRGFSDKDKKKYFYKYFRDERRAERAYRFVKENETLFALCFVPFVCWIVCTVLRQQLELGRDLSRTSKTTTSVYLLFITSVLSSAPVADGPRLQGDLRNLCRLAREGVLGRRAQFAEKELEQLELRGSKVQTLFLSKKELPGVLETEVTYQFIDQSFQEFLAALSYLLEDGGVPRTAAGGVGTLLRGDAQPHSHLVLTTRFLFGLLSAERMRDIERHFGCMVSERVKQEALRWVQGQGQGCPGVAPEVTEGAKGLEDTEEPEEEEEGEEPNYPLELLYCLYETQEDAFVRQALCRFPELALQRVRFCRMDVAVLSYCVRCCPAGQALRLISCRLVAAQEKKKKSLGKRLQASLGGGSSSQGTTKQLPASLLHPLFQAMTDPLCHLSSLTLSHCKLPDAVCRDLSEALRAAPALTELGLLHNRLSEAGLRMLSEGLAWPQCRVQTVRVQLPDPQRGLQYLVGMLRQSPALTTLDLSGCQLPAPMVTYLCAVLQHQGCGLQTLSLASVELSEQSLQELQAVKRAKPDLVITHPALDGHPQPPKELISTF

By UniProt entry, the sequences of proteins in these tests, tags left out. Where a name states a change or a piece, a line headed by the entry shows the natural chain unless it says otherwise.
UniProt P27986: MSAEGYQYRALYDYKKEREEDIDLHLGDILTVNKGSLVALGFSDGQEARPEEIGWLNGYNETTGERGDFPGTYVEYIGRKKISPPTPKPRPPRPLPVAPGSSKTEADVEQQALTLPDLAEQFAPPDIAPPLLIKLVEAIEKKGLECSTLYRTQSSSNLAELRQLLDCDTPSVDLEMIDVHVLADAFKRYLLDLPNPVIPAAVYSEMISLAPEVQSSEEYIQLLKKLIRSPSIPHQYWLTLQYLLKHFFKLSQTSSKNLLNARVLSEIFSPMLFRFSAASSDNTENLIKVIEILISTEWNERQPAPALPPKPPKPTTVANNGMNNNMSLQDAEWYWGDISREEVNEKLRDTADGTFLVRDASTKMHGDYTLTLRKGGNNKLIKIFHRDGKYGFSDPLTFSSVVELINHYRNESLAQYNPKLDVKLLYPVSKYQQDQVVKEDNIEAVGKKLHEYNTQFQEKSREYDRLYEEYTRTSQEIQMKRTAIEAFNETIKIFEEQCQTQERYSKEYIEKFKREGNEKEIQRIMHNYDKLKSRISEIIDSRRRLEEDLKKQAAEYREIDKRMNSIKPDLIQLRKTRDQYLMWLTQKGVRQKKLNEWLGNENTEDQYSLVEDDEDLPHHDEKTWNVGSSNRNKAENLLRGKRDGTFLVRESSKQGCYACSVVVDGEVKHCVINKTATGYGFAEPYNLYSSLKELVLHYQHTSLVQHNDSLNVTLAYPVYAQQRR
UniProt P63208: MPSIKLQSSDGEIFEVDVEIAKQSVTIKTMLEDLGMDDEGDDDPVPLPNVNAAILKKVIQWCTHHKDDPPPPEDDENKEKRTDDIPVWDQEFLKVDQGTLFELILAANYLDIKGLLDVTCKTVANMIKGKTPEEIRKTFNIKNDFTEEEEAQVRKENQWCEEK
UniProt Q96CV9: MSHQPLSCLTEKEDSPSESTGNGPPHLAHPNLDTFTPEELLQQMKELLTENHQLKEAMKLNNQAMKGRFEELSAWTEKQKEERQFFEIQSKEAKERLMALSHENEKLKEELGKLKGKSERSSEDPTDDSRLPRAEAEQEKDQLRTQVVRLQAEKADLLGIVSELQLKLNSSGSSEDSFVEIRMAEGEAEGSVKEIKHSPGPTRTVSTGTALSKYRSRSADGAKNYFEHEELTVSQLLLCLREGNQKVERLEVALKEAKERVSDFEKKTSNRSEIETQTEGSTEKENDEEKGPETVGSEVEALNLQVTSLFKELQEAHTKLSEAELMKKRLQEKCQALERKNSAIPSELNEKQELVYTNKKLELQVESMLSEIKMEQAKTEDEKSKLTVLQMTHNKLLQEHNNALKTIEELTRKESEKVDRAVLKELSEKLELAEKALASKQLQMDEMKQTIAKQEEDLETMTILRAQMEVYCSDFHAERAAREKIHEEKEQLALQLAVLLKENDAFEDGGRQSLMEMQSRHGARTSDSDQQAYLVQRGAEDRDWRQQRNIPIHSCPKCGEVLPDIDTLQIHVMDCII

Myc-NLRP6 (human) [5] = target: T2, Myc-NLRP6 (human) (UniProt P59044); test: co-IP; LN229 cells transfected with tagged plasmids; cell lysates; Fig. 3d in the presence of BafA1 (0.2 μM)
T2 sequence: T1 sequence

[6] = target: T3, NLRP6 NOD domain (amino acids 104–726), Flag-tagged deletion construct (human) (UniProt P59044); test: co-IP; HEK293T cells transfected with tagged plasmids; cell lysates
T3 sequence: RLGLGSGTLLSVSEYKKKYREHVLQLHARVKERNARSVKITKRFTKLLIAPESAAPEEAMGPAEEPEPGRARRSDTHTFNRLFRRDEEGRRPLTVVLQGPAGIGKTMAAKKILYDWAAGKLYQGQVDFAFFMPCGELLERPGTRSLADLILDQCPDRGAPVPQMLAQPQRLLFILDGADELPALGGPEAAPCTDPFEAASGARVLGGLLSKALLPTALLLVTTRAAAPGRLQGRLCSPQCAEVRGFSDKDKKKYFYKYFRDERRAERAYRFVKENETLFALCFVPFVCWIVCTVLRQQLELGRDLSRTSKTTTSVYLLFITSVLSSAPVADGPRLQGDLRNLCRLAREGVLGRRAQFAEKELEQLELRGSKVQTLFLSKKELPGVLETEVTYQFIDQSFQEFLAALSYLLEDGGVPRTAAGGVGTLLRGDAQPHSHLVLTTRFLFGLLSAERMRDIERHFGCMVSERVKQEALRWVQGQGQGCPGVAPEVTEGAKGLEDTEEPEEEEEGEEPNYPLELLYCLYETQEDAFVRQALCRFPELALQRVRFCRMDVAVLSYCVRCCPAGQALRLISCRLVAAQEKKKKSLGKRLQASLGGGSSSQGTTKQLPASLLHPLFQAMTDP

[7] = target: T4, NLRP6 (transfected, tag not stated) (human) (UniProt P59044); test: as above
T4 sequence: T1 sequence

Flag-NLRP6 (human) = target: T5, Flag-NLRP6 (human) (UniProt P59044); test: as above
T5 sequence: T1 sequence

[8] = target: endogenous p85α (human (endogenous in LN229)) (UniProt P27986); test: co-IP; NLRP6 knockout (KO) LN229 cells; cell lysates
[9] = target: endogenous p85α (human (endogenous in LN229)) (UniProt P27986); test: co-IP; endogenous proteins in LN229 cell lysates; lysate with the indicated antibody at 4 °C overnight, Protein A/G beads 2 h; control cells of the NLRP6 KO comparisons included
Myc-NLRP6 (human) [10] = target: T2, Myc-NLRP6 (human); test: co-IP; HEK293T cells transfected with tagged plasmids; cell lysates
[11] = target: T6, endogenous NLRP6 (human (endogenous in LN229)) (UniProt P59044); test: co-IP; endogenous proteins in LN229 cell lysates; lysate with the indicated antibody at 4 °C overnight, Protein A/G beads 2 h; control cells of the NLRP6 KO comparisons included
T6 sequence: T1 sequence

Substance: GST-p85α (K245R) (from UniProt P27986 1-724)
- binding [4]: no binding

Substance: HA-p85α (K256R) (from UniProt P27986 1-724)
- binding (Myc-NLRP6 (human) [5]): binds

Substance: HA-p85α (WT) (from UniProt P27986 1-724)
- binding (Myc-NLRP6 (human) [5]): binds
- binding [6]: binds
- binding [7]: binds
- binding (Flag-NLRP6 (human)): binds

Substance: SKP1 (transfected) (from UniProt P63208 1-163)
- binding (Myc-NLRP6 (human) [10]): no binding

More lines, main results first:

- binding (HA-p85α (WT) (human) [2]): binds
- binding (HA-p85α (K245R) (human)): no binding
- binding (HA-p85α (WT) (human) [3]): binds
- binding (HA-p85α (K256R) (human)): no binding
Substance: Flag-tagged wild type (WT) OPTN (from UniProt Q96CV9 1-577)
- binding (HA-p85α (WT) (human) [1]): no binding (condition: in RBX1 KO LN229 cells)

- binding (Myc-NLRP6 (human) [5]): no binding
Substance: HA-p85α (K245R) (from UniProt P27986 1-724)

- binding [9]: binds
Substance: OPTN in LN229 cells (from UniProt Q96CV9 1-577)
- binding [8]: no binding (condition: in NLRP6 KO LN229 cells)

- binding [11]: binds
Substance: endogenous p85α (from UniProt P27986 1-724)

- binding [7]: binds
Substance: p85α SR domain (amino acids 1–301) (from UniProt P27986 1-301) (domain or fragment)

Reference: paper PMC10539329, “NLRP6 potentiates PI3K/AKT signalling by promoting autophagic degradation of p85α to drive tumorigenesis” (Nature Communications, 2023)
